The data set deals with the molecule itself. The data set is described as follows: cryo-EM structure; MAX-MAX homodimer on a nucleosome with an E-box at SHL+5.1 (1:3), GraFix cross-linked; 6.2 Å overall, 10–15 Å for MAX-MAX.

B1: MAX-MAX homodimer (human MAX […]) (complex)
chain: not shown
notes: MAX, human, […]; also called MAX-MAX bHLH LZ; source: E. coli, purified (Strep-Tactin, Superdex 200 Increase)
As to B1, the binding result is reported as “binds”.

The values above are taken from PMC10338342, “Cooperation between bHLH transcription factors and histones for DNA access” (Nature, 2023).
